Hit rate of the full screen: of about 330,000 compounds, about 300 (0.091%) were called active. Inconclusive results (about 4%) are left out. Calls follow the shape of the dose curve; as a rule, active = well fitted inhibition curve with a large enough effect; inconclusive = small, poorly fitted or top-dose-only effect, or effect the other way, or another doubt; inactive = no such curve, though single readings can be large or run the other way. The entries are a selection whose mix differs from that of the whole data set.
What follows are compounds tested against Lysosomal acid glucosylceramidase (Homo sapiens) (UniProt P04062) (assay: qHTS Assay for Inhibitors and Activators of N370S glucocerebrosidase as a Potential Chaperone Treatment of Gaucher Disease). Settings: N370S GC spleen homogenate, 4MU-glucoside fluorescence; series mostly up to 59.4 µM; activity change, negative = inhibition: at the top concentration.
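For activity change, negative = inhibition in this document: 0% = full enzyme activity and -100% = no enzyme basal.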
Potency is read from the fitted curve at half-maximal effect.

| SMILES | activity change, negative = inhibition | Potency |
| --- | --- | --- |
| O[C@@](CCN1CCCCC1)(c1ccccc1)[C@@H]1C[C@H]2C=C[C@@H]1C2 | inactive: 4.14% [at 21.6 µM] |  |
| CCOC(=O)[C@@H]1[C@H]2COc3ccccc3[C@@H]2N2C(=O)N(c3cccc(Cl)c3)C(=O)[C@@]12C | inactive: 7.35% |  |
| CC1OC(Nc2ccc(N=Nc3ccccc3)cc2)C(O)C(O)C1O (configuration not stated) | inactive: -27.1% |  |
| N#Cc1cc2[nH]c(=O)c(=O)[nH]c2cc1[N+](=O)[O-] |  | active: 22.4 µM |
| C#CCOCCOCCOCCNc1nc(N2CCN(C(=O)CCCCCCCCCCNC(=O)[C@H]([C@@H](C)CC)n3cc(CCCCN=C(N)N)nn3)CC2)nc(N2CCN(C(=O)CCCCCCCCCCNC(=O)[C@H](CCCCN)n3cc(C)nn3)CC2)n1 |  | active: 15.8 µM |
| C#CCOCCOCCOCCNc1nc(N2CCN(C(=O)CCCCCCCCCCNC(=O)[C@H](CCCCN)n3cc(C)nn3)CC2)nc(N2CCN(C(=O)CCCCCCCCCCNC(=O)[C@H](CCCN=C(N)N)n3cc(C[C@@H](C)CC)nn3)CC2)n1 |  | active: 7.94 µM |
| NC(=O)C1=C[C@H](c2ccc(Br)cc2)C[C@H](OCc2ccc(CO)cc2)O1 | inactive: 6.76% |  |
| CCOC(=O)c1ccc(Nc2cc(C)nc(-c3ccccc3)n2)cc1 |  | active: 1.41 µM |
| CCOC(=O)COc1ccc(Br)cc1/C=C/c1[nH]c(=O)[nH]c(=O)c1[N+](=O)[O-] | inactive: 4.63% |  |
| O=C(C1=C[C@H](c2ccc(C(F)(F)F)cc2)C[C@H](OCc2ccc(CO)cc2)O1)N1CCN(Cc2ccccc2)CC1 | inactive: -11.3% |  |
| CC(C)(C)c1ccc([C@@H](O)CCCN2CCC(C(O)(c3ccccc3)c3ccccc3)CC2)cc1 | inactive: -2.66% [at 21.6 µM] |  |
| C=C1OC(CO)(n2cnc3c(N)ncnc32)C(O)C1O (configuration not stated) | inactive: -0.0084% |  |
| O=C(Nc1ccccc1)C1=C[C@H](c2ccc(C(F)(F)F)cc2)C[C@H](OCc2ccc(CO)cc2)O1 | inactive: 26% |  |
| CC(=O)OC1c2c(ccc3ccc(=O)oc23)OC(C)(C)C1OC(=O)CC(C)C (configuration not stated) | inactive: 17.2% |  |
| O=C(c1ccccc1)c1sc(N2CCCCCC2)nc1-c1ccccc1 | inactive: 10.8% |  |
| COC(=O)[C@@H]1[C@H]2C[C@H]3c4[nH]c5ccccc5c4CCN3C[C@@H]2CC[C@@H]1O |  | inactive |
| O=C(NCc1nc2ccccc2[nH]1)C1=C[C@H](C2CCCCC2)C[C@H](OCc2ccc(CO)cc2)O1 | inactive: 21.8% |  |
| O[C@H]1[C@H]2c3cc4c(cc3CN3CCC(=C[C@@H]1O)[C@H]23)OCO4 | inactive: 8.61% |  |
| OCc1cc(C(O)CNCCCCCCOCCCCc2ccccc2)ccc1O (configuration not stated) |  | inactive |
| C[C@]12CCC3C(CC[C@H]4CCCC[C@]34C)C1CC[C@@]2(O)CNCCO (some centres not stated) | inactive: -18.6% |  |
| Cc1cc(C2CCCCC2)n(O)c(=O)c1 |  | inactive |

| SMILES | activity change, negative = inhibition | Potency |
| --- | --- | --- |
| N=c1c2c(-c3ccccc3)c(-c3ccccc3)n(Cc3ccco3)c2ncn1CCCn1ccnc1 |  | active: 3.16 µM |
| O=C(Nc1ccc(C(=O)Nc2ccc(C(=O)Nc3ccc(S(=O)(=O)O)c4cc(S(=O)(=O)O)cc(S(=O)(=O)O)c34)cc2)cc1)Nc1ccc(C(=O)Nc2ccc(C(=O)Nc3ccc(S(=O)(=O)O)c4cc(S(=O)(=O)O)cc(S(=O)(=O)O)c34)cc2)cc1 | inactive: -6.78% |  |
| CC(C)COCC(CN(Cc1ccccc1)c1ccccc1)N1CCCC1 (configuration not stated) |  | inactive |
| COC(=O)N1C(=O)[C@@](c2ccccc2)(C(C)C)N1C(=O)OC | inactive: -18.8% |  |
| COc1ccccc1[C@@H]1C(c2cccc(Cl)c2)=NN(c2ccc(Br)cc2)[C@H]1C(=O)N1CCOC1=O | inactive: 5.7% |  |
| COc1cc(C(CCN2CCCC(C)C2)c2c(OC)cc(OC)c3c2OC(=O)CC3c2ccc(N(C)C)cc2)cc(OC)c1OC (configuration not stated) | inactive: -18.5% |  |
| O=C1NCN(c2ccccc2)C12CCN(CCCC(c1ccc(F)cc1)c1ccc(F)cc1)CC2 |  | inactive |
| COc1cc(C2C(C#N)=C(C)NC3=C2C(=O)CC(C)(C)C3)ccc1O (configuration not stated) |  | active: 10 µM |
| COc1cc(OC)c2c(c1C(CCN1CCOCC1)c1ccc(N(C)C)cc1)OC(=O)CC2c1ccc(N(C)C)cc1 (configuration not stated) |  | active: 10 µM |
| Cc1ccc(N(CC(=O)Nc2ccc(Br)c(C)c2)S(=O)(=O)c2c(C)[nH]c(=O)[nH]c2=O)cc1 |  | active: 11.2 µM |
| O=C(NCc1ccccc1)C1=C[C@H](c2ccc(C(F)(F)F)cc2)C[C@H](OCc2ccc(CO)cc2)O1 | inactive: 26.4% |  |
| O=C1N=C(O)CN1/N=C\c1ccc(-c2ccc([N+](=O)[O-])cc2)o1 |  | inactive |
| C=CCN1CCN(c2nc3ccccc3nc2C#N)CC1 | inactive: -9.48% |  |
| c1ccc(C2[C@H]3CN(CC4CCCCC4)[C@H](c4ccccc4)C34CC2(c2cccnc2)C4)cc1 (some centres not stated) |  | active: 14.1 µM |
| Oc1ccc(C[C@H]2CNCCN2CCc2cccc3ccccc23)cc1 | inactive: -16.9% |  |
| O=C(CCN1C(=O)/C(=C/c2ccccc2)SC1=S)NCCCN1CCOCC1 | inactive: -10.5% |  |
| Cc1ccccc1CN1C(=O)c2ccccc2Sc2ccc(C(=O)NCCCN3CCOCC3)cc21 |  | active: 11.2 µM |
| COc1cc(C(C(=O)NC(C)(C)C)N(C(=O)CNC(=O)c2cccs2)c2ccccc2)cc(OC)c1OC (configuration not stated) |  | active: 12.6 µM |
| COC(=O)[C@H]1C2CC3c4[nH]c5ccccc5c4CCN3CC2CC[C@@H]1O (some centres not stated) | inactive: -4.4% |  |
| C=CCc1c(C)nc(-c2ccccc2)nc1N/N=C/c1ccccc1 |  | active: 15.8 µM |
| CCCC1O[C@@H]2C[C@H]3[C@@H]4CCC5=CC(=O)C=C[C@]5(C)C4[C@@H](O)C[C@]3(C)[C@]2(C(=O)CO)O1 (some centres not stated) | inactive: -3.6% |  |

| SMILES | activity change, negative = inhibition | Potency |
| --- | --- | --- |
| COC(=O)[C@H]1[C@@H]2C[C@H]3c4[nH]c5ccccc5c4CCN3C[C@@H]2CC[C@@H]1O | inactive: 8.68% |  |
| COc1ccccc1[C@@H]1C(c2cccc(C)c2)=NN(c2ccccc2)[C@H]1C(=O)N1CCOC1=O | inactive: 2.12% |  |
| Cc1cccc(CNc2ccnc(-c3ccccc3Cl)n2)c1 |  | active: 7.08 µM |
| CN1C(=O)/C(=C/c2cc(N=Nc3ccccc3)ccc2O)SC1=S | inactive: 6.09% |  |
| COc1ccc(-c2c(C3C4C=CCCC4(C)C(=O)N3Cc3ccccc3)ccc3ccccc23)cc1OC (configuration not stated) | inactive: -1.2% |  |
| Oc1ccc(N=Cc2c(O)ccc3ccccc23)cc1 |  | active: 12.6 µM |
| COc1ccc([C@@H]2Sc3ccccc3N(CCN(C)C)C(=O)[C@@H]2OC(C)=O)cc1 |  | inactive |
| C#CCOCCOCCOCCNc1nc(N2CCN(C(=O)CCCCCCCCCCNC(=O)Cn3cc(C[C@@H](C)O)nn3)CC2)nc(N2CCN(C(=O)CCCCCCCCCCNC(=O)[C@H](CCCN=C(N)N)n3cc(C[C@@H](C)CC)nn3)CC2)n1 |  | active: 2.82 µM |
| COc1cc(/C=C(\C#N)C(=O)c2ccc(O)c(O)c2)cc(I)c1O | inactive: -29.6% |  |
| O=C(C1=C[C@H](c2ccc(C(F)(F)F)cc2)C[C@H](OCCCCO)O1)N1CCN(Cc2ccc3c(c2)OCO3)CC1 | inactive: -19.8% |  |
| O=C(CCCN1CCC(O)(c2ccc(Cl)cc2)CC1)c1ccc(F)cc1 |  | inactive |
| Clc1ccc(C2[C@H]3CN(Cc4ccc(-c5ccccc5)cc4)[C@H](c4ccccc4)C34CC2(c2cccnc2)C4)cn1 (some centres not stated) | inactive: -27.5% |  |
| Cc1ccc(C(=O)N/C(=C\C=C\c2ccccc2)C(=O)NCc2ccco2)cc1 | inactive: 8.54% |  |
| O=C1S/C(=C/c2ccc(N3CCOCC3)o2)C(=O)N1Cc1c(F)cccc1Cl | inactive: -3.28% |  |
| CCOC(=O)C1=C(N)Oc2ccc(Br)cc2[C@@H]1[C@@H](C#N)C(=O)OCC | inactive: 18% |  |
| Nc1nc(-c2ccccc2)c(N=Nc2ccc(Cl)cc2)s1 |  | active: 2.51 µM |
| CC(=O)N1CCN(c2ccc(NC(=O)C(c3ccccc3)c3ccccc3)cc2)CC1 |  | active: 12.6 µM |
| COc1cc2ccc(=O)oc2cc1O | inactive: 0.792% [at 21.6 µM] |  |
| CCN(CC)CCOC(=O)c1ccc(NC(=O)CCCN2C(=O)/C(=C\c3cccs3)SC2=S)cc1 | inactive: -18.2% |  |
| CC(=O)C1=C(C)N(Cc2ccccc2)C(=O)N[C@H]1c1cccc(C(F)(F)F)c1 |  | inactive |
| O=C(/C=C/c1ccc(O)cc1)c1c(O)cc(O)cc1O | inactive: -28.5% |  |

| SMILES | activity change, negative = inhibition | Potency |
| --- | --- | --- |
| CCOC(=O)[C@@H]1[C@H]2COc3ccc(Br)cc3[C@@H]2N2C(=O)N(c3ccc(C)cc3)C(=O)[C@]12C | inactive: -5.03% |  |
| CCCCCc1cc(=O)oc2c(C(CCN3CCCCC3)c3ccc(OC)cc3)c(OC)cc(OC)c12 (configuration not stated) | inactive: -15.1% |  |
| COc1cc(OC)c2c(-c3ccccc3)cc(=O)oc2c1C(CCN1CCCC1)c1ccc2c(c1)OCO2 (configuration not stated) | inactive: -29.6% |  |
| C=CCc1c(C)nc(-c2ccccc2)nc1N/N=C(\C)c1ccc(N)cc1 |  | active: 12.6 µM |
| CCO[C@H]1OC(C(=O)NCc2nc3ccccc3[nH]2)=C[C@@H](c2ccc(C(F)(F)F)cc2)[C@@H]1CCCO | inactive: 1.38% |  |
| Oc1cc(O)cc(/C=C/c2ccc(O)c(O)c2)c1 |  | inactive |
| Cc1cccc(C)c1NC(=O)CN1CCN(CCCC(c2ccc(F)cc2)c2ccc(F)cc2)CC1 | inactive: -5.06% [at 21.6 µM] |  |
| CC(=O)Nc1ccc(OCC(O)CNC(C)C)cc1 (configuration not stated) | inactive: 6.76% |  |
| O=C(Nc1ccccc1)C1=C[C@H](C2CCCCC2)C[C@H](OCc2ccc(CO)cc2)O1 | inactive: 28.7% |  |
| COc1cc(OC)c2c(-c3ccccc3)cc(=O)oc2c1C(CCN1CCCC(C)C1)c1ccc2c(c1)OCO2 (configuration not stated) | inactive: -18.7% |  |
| O=C(C1=C[C@H](c2ccccc2)C[C@H](OCc2ccc(CO)cc2)O1)N1CCCCCCC1 | inactive: 14.4% |  |
| CCN1CCS/C1=C/C=C/C1=[N+](CC)CCS1 |  | active: 7.94 µM |
| CC(=O)OCC(=O)[C@@]1(O)CC[C@@H]2[C@H]3CCC4=CC(=O)C=C[C@]4(C)[C@]3(F)[C@@H](O)C[C@@]21C | inactive: 9.08% [at 21.6 µM] |  |
| c1ccc(CNc2nc(-c3cccnc3)nc3ccccc23)cc1 | inactive: -11.7% |  |
| CCN1CCN(C(CC(C)C)c2nnnn2CS(=O)(=O)c2ccc(C)cc2)CC1 (configuration not stated) |  | active: 22.4 µM |
| CCCn1c(C(CO)Nc2nc(-c3cccc(Br)c3)cs2)nc2ccccc21 (configuration not stated) |  | active: 1.78 µM |
| CC(C)=CCC/C(C)=C/COc1ccc2ccc(=O)oc2c1 |  | inactive |
| CCC(=O)OCCNc1nc(-c2ccccc2)nc2ccccc12 |  | active: 2 µM |
| Clc1ccc([C@H](Cn2ccnc2)OCc2c(Cl)cccc2Cl)c(Cl)c1 | inactive: 2.13% [at 21.6 µM] |  |

— PubChem BioAssay AID2101 (National Center for Advancing Translational Sciences (NCATS), 2009)
